Reference: the supplement of paper PMC6089552
In all, about 3,200 compounds went through this assay and about 300 (9.4%) showed activity. The entries are a selection whose mix differs from that of the whole data set.

Test system: A673/TR/shEF
Experiment: cell viability (LOESS-normalised, relative to median of negative controls) (log2 ratio); higher = more viable cells (less compound effect), active = hit call of the paper (over 3 MAD below the median)
Conditions: treatment time: 72 h
Procedure, shortened: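 For three days, A673/TR/shEF Ewing sarcoma cells in 384-well plates (1,500 per well) were treated with library compounds at two or more concentrations or with DMSO controls, after doxycycline had been added or withheld 24 h beforehand to induce EWS-FLI1 shRNA knockdown. Viability was read by CellTiter-Glo luminescence on an Envision reader. The data were LOESS-corrected per plate, divided by the median of negative controls and log2-transformed.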

[1] = 0.25 µM, library screen: screen1, EWS-FLI1 expression: high (no doxycycline)
[2] = 0.25 µM, library screen: screen1, EWS-FLI1 expression: low (doxycycline-induced shRNA knockdown)
[3] = 2.5 µM, library screen: screen1, EWS-FLI1 expression: high (no doxycycline)
[4] = 2.5 µM, library screen: screen1, EWS-FLI1 expression: low (doxycycline-induced shRNA knockdown)
[5] = 0.25 µM, library screen: screen2, EWS-FLI1 expression: high (no doxycycline)
[6] = 0.25 µM, library screen: screen2, EWS-FLI1 expression: low (doxycycline-induced shRNA knockdown)
[7] = 2.5 µM, library screen: screen2, EWS-FLI1 expression: high (no doxycycline)
[8] = 2.5 µM, library screen: screen2, EWS-FLI1 expression: low (doxycycline-induced shRNA knockdown)
[9] = 0.103 µM, library screen: screen3, EWS-FLI1 expression: high (no doxycycline)
[10] = 0.103 µM, library screen: screen3, EWS-FLI1 expression: low (doxycycline-induced shRNA knockdown)
[11] = 0.308 µM, library screen: screen3, EWS-FLI1 expression: high (no doxycycline)
[12] = 0.308 µM, library screen: screen3, EWS-FLI1 expression: low (doxycycline-induced shRNA knockdown)
[13] = 0.926 µM, library screen: screen3, EWS-FLI1 expression: high (no doxycycline)
[14] = 0.926 µM, library screen: screen3, EWS-FLI1 expression: low (doxycycline-induced shRNA knockdown)
[15] = 2.8 µM, library screen: screen3, EWS-FLI1 expression: high (no doxycycline)
[16] = 2.8 µM, library screen: screen3, EWS-FLI1 expression: low (doxycycline-induced shRNA knockdown)
[17] = 8.3 µM, library screen: screen3, EWS-FLI1 expression: high (no doxycycline)
[18] = 8.3 µM, library screen: screen3, EWS-FLI1 expression: low (doxycycline-induced shRNA knockdown)
[19] = 25 µM, library screen: screen3, EWS-FLI1 expression: high (no doxycycline)
[20] = 25 µM, library screen: screen3, EWS-FLI1 expression: low (doxycycline-induced shRNA knockdown)

Measured: cell viability (log2)

COc1cc(/C=C/C(=O)/C=C(O)/C=C/c2ccc(O)c(OC)c2)ccc1O
inactive: [1] 0.0822 | [2] 0.0311 | [3] 0.0603 | [4] -0.0173

O=C(O)/C=C/C(O)c1ccc(Cl)cc1 (centres undefined)
inactive: [5] 0.208 | [6] 0.124 | [7] 0.113 | [8] 0.00489

C[C@]12CCC(=O)C=C1CC[C@@H]1[C@@H]2CC[C@@]2(C)[C@H]1CC[C@]2(O)C(=O)CO
inactive: [5] 0.161 | [6] 0.0623 | [7] 0.245 | [8] 0.0383

NC[C@@H]1O[C@H](O[C@H]2[C@@H](O)[C@H](O[C@@H]3[C@@H](O)[C@H](N)C[C@H](N)[C@H]3O[C@H]3O[C@H](CO)[C@@H](O)C[C@H]3N)O[C@@H]2CO)[C@H](N)[C@@H](O)[C@@H]1O[C@H]1O[C@H](CO)[C@@H](O)[C@H](O)[C@@H]1O
inactive: [1] 0.156 | [2] 0.0397 | [3] 0.0315 | [4] 0.0591

CN(C)CCC(c1ccc(Br)cc1)c1ccccn1 (centres undefined)
inactive: [1] 0.216 | [2] 0.0645 | [5] 0.203 | [6] 0.122 | [3] 0.106 | [4] 0.0334 | [7] 0.147 | [8] 0.129

COc1ccccc1N1CCN(CCCNc2c(C)c(=O)n(C)c(=O)n2C)CC1
inactive: [5] 0.136 | [6] 0.116 | [7] 0.12 | [8] 0.055

Oc1c(Cl)cc(Cl)c2cccnc12
inactive: [9] 0.144 | [10] 0.0884 | [1] 0.0613 | [2] 0.0797 | [11] 0.145 | [12] 0.0833 | [13] 0.152 | [14] 0.0399 | [3] 0.11 | [4] 0.0736 | [15] 0.0907 | [16] 0.0284 | [17] 0.0697 | [18] 0.0552 | [19] -0.128 | [20] 0.105

CN1CCN(c2nc3ccccn3c(=O)c2/C=C2\SC(=S)N(CC3CCCO3)C2=O)CC1 (centres undefined)
inactive: [1] 0.134 | [2] 0.0801 | [3] 0.0647 | [4] 0.048

COc1cc(Nc2c(C#N)cnc3cc(OCCCN4CCN(C)CC4)c(OC)cc23)c(Cl)cc1Cl
active: [19] -1.59 | [20] -0.647

CC(=O)N[C@H](C(=O)O)C(C)(C)SN=O
inactive: [5] 0.143 | [6] -0.0423 | [7] 0.085 | [8] 0.0334

CCC1(c2ccccc2)C(=O)NCNC1=O
active: [7] -0.197 | [8] -0.337

O=C(O)CCCCCCCCCCCCC1C=CCC1 (centres undefined)
inactive: [1] 0.109 | [2] -0.0641 | [3] 0.133 | [4] 0.00345

N#Cc1ccc2c(c1)N(CCCN1CCC(O)CC1)c1ccccc1S2
inactive: [1] 0.0311 | [2] 0.0801 | [3] 0.102 | [4] 0.0718

COc1ccc(NC(=O)/C(=C/c2cccs2)NC(=O)c2cccs2)cc1
inactive: [1] 0.0675 | [2] 0.0437 | [3] 0.0662 | [4] 0.0201

NC(=O)C1CCCc2c1[nH]c1ccc(Cl)cc21 (centres undefined)
inactive: [9] 0.0735 | [10] 0.0747 | [11] 0.00301 | [12] 0.0206 | [13] 0.00589 | [14] 0.0858 | [15] 0.0139 | [16] 0.0236 | [17] 0.0192 | [18] 0.0625 | [19] 0.0618 | [20] 0.0202

COc1cccc2c1CCC1CC(=O)CC[C@]21C (some centres undefined)
inactive: [1] 0.0982 | [2] 0.0827 | [3] 0.058 | [4] 0.11

NC1CCN(O)C1=O (centres undefined)
inactive: [5] 0.2 | [6] 0.142 | [7] 0.0598 | [8] 0.0845

COc1ccc(CNS(=O)(=O)c2ccc(NC(C)=O)cc2)cc1
inactive: [1] 0.136 | [2] 0.114 | [3] 0.073 | [4] 0.0317

C[C@]12CC[C@@H]3c4ccc(O)cc4C[C@@H](CCCCCCCCC[S+]([O-])CCCC(F)(F)C(F)(F)F)[C@H]3[C@@H]1CC[C@@H]2O (some centres undefined)
inactive: [9] 0.0763 | [10] 0.0366 | [11] 0.032 | [12] 0.0664 | [13] 0.206 | [14] 0.0078 | [15] 0.089 | [16] 0.022 | [17] 0.119 | [18] 0.0733 | [19] 0.114 | [20] 0.139

COC(=O)c1c(OC)cc2c(c1C)Oc1c(Cl)c(O)c(Cl)c(C)c1C(=O)O2
inactive: [1] 0.0752 | [2] -0.0599 | [3] 0.0671 | [4] 0.0715

COc1cc(CNC(=O)CCCC/C=C/C(C)C)ccc1O
inactive: [1] 0.143 | [2] 0.0268 | [3] -0.0157 | [4] -0.427

CO/N=C(\C(=O)N[C@@H]1C(=O)N2C(C(=O)O)=C(COC(C)=O)CS[C@H]12)c1csc(N)n1
inactive: [1] 0.0446 | [2] 0.0457 | [5] 0.2 | [6] 0.0913 | [3] 0.131 | [4] 0.159 | [7] -0.0248 | [8] 0.156

C=C1C2CCC3(C)C(c4ccoc4)OC(=O)CC13OC1CC(=O)C(C)(C)C(CC(=O)OC)C12C (centres undefined)
inactive: [1] 0.0862 | [2] 0.067 | [3] 0.0511 | [4] 0.0888

O=C(O)c1c2ccccc2cc2ccccc12
inactive: [1] 0.0833 | [2] 0.174 | [3] 0.112 | [4] 0.125

C=CCCCCCCCCCCCC=CC(O)COC(C)=O (centres undefined)
inactive: [1] -0.0116 | [2] 0.0382 | [3] 0.137 | [4] 0.0541

Cc1cc2cc3c(C)cc(=O)oc3c(C)c2o1
inactive: 0.025 µM, library screen: screen2, EWS-FLI1 expression: high (no doxycycline) 0.0654 | 0.025 µM, library screen: screen2, EWS-FLI1 expression: low (doxycycline-induced shRNA knockdown) 0.107 | [1] 0.0749 | [2] 0.172 | [5] 0.033 | [6] 0.071 | [3] 0.132 | [4] 0.159 | [7] 0.0444 | [8] 0.0462 | 25 µM, library screen: screen2, EWS-FLI1 expression: high (no doxycycline) 0.148 | 25 µM, library screen: screen2, EWS-FLI1 expression: low (doxycycline-induced shRNA knockdown) 0.08

CC(=O)Nc1nnc(S(N)(=O)=O)s1
inactive: [1] 0.0998 | [2] 0.0331 | [5] 0.152 | [6] 0.0614 | [3] 0.127 | [4] 0.164 | [7] 0.0792 | [8] 0.0644

O=C(O)CCC(C(=O)O)N1C(=O)c2ccccc2C1=O (centres undefined)
inactive: [5] 0.0198 | [6] 0.0984 | [7] 0.111 | [8] -0.0225

OC[C@@H](O)[C@@H](O[C@@H]1O[C@H](CO)[C@@H](O)[C@H](O)[C@H]1O)[C@H](O)[C@@H](O)CO
inactive: [1] 0.117 | [2] 0.055 | [3] 0.143 | [4] 0.0198

COc1cc(O)c2c(=O)cc(C)oc2c1CC=C(C)C
inactive: [1] 0.113 | [2] 0.0803 | [3] 0.117 | [4] 0.16

NC(N)=N[C@@H](CCC(=O)O)C(=O)O
inactive: [5] 0.154 | [6] 0.0756 | [7] 0.175 | [8] 0.0169

CCN(CC)CCNC(=O)c1ccc(N)cc1
inactive: [1] 0.0893 | [2] 0.128 | [5] 0.138 | [6] 0.0499 | [3] 0.121 | [4] 0.267 | [7] 0.308 | [8] 0.0657

CCCCCCOc1ccccc1C(N)=O
inactive: [1] 0.124 | [2] 0.088 | [3] 0.0625 | [4] 0.135

OC[C@H]1O[C@@H](n2cnc3c(N[C@H]4CC5CCC4C5)ncnc32)[C@H](O)[C@@H]1O (some centres undefined)
inactive: [5] 0.203 | [6] 0.0126 | [7] 0.145 | [8] 0.0632

CNCC(O)c1ccc(O)c(O)c1 (centres undefined)
inactive: [5] 0.184 | [6] 0.0645 | [7] 0.13 | [8] 0.0673

COc1cc2ccc(=O)oc2c(O)c1O
inactive: [1] 0.0227 | [2] -0.0887 | [3] 0.0666 | [4] 0.0769

O=C1c2c(O)cccc2[C@H]([C@@H]2O[C@H](CO)[C@@H](O)[C@H](O)[C@H]2O)c2cc(CO)cc(O)c21
inactive: [1] -0.0436 | [2] 0.0429 | [3] 0.0652 | [4] 0.172

Nc1ccc(S(=O)(=O)Nc2nccs2)cc1
inactive: [1] 0.085 | [2] 0.101 | [3] 0.113 | [4] 0.106

Cc1ccc(-c2cc(C(F)(F)F)nn2-c2ccc(S(N)(=O)=O)cc2)cc1
inactive: [9] 0.112 | [10] 0.13 | [1] 0.171 | [2] 0.082 | [11] 0.113 | [12] 0.0712 | [13] 0.0884 | [14] 0.0716 | [3] 0.116 | [4] -0.00575 | [15] 0.124 | [16] 0.00169 | [17] 0.103 | [18] 0.0767 | [19] 0.103 | [20] 0.0672

COC(=O)C[C@H]1C(C)(C)C2(Cl)O[C@@]34CC2C(=O)[C@]1(C)C3CC[C@]1(C)C4=CC(=O)O[C@H]1c1ccoc1 (some centres undefined)
inactive: [1] 0.0526 | [2] 0.0775 | [3] 0.126 | [4] 0.163

CCOC(=O)C1=C(C)NC(=S)NC1c1cccc(O)c1 (centres undefined)
inactive: [5] 0.183 | [6] 0.134 | [7] 0.103 | [8] 0.054
